# Laboratory results from article doi:10.1101/2022.08.03.502606 (bioRxiv, 2022).
# Biological target: T1, Atto-488-CaMKII^WT / Atto-594-CaMKII^WT (biotinylated CaMKII^WT-AviTag, fluorescently labelled at the … (human, UniProt Q9UQM7 6-478, biotin on the AviTag)); Atto-488 or Atto-594 maleimide dye on the SrtA recognition peptide (CLPETGG) joined to the N-terminus)
# T1 construct: CaMKII alpha, human, lacking the first 5 residues, with a 30-residue linker; The two dye forms differ only by the fluorophore and are one molecule here; also called labeled CaMKII^WT; differentially-labeled CaMKII^WT; source: E. coli BL21, purified; biotinylated with BirA and labelled with SrtA in vitro; not shown: His6, N-terminal, cleaved; AviTag (biotinylated), C-terminal, kept; SrtA …
# Experiment: single molecule TIRF colocalization; Atto-488 and Atto-594 labelled CaMKII, 55 nM, activating conditions (150 nM CaM, 1 mM ATP, 2 mM MgCl2, 2 min), 25 mM Tris pH 8, 150 mM KCl, 1 mM TCEP; bound to NeutrAvidin coverslip; stage 37°C
# Settings: both partners purified
binder,measurement,value
"Atto-488 / Atto-594 labelled CaMKII^KD (biotinylated CaMKII^K42RD135N-AviTag, fluorescently labelled at the N-terminus with sortase) (enzyme, biotin on the AviTag; Atto-488 or Atto-594 maleimide dye on the SrtA recognition peptide (CLPETGG) joined to the N-terminus, CaMKII alpha, human, lacking the first 5 residues, with a 30-residue linker; K42R and D135N; The two dye forms are one molecule here; also called differentially labeled CaMKII^KD; source: E. coli BL21, purified; biotinylated with BirA and labelled with SrtA in vitro; not shown: His6, N-terminal, cleaved; AviTag (biotinylated), C-terminal, kept; SrtA recognition peptide (CLPETGG) with Atto-488 or …) not shown",binding result,binds
